The values that follow come from the RNAGym collection of RNA variant scans (doi:10.1093/nar/gkz1192).

B1: CPEB3 Ribozyme (parent)
chain: UAACAGGGGGCCACAGCAGAAGCGUUCACGUCGCAGCCCCUGUCAGAUUCUGGUGAAUCUGCGAAUUCUGCUGUAUAUCUC

The source gives no read counts; variants with many changes may rest on few reads.

Variants of B1 are the subject of this data set. Nature of the data set: self-cleavage, relative activity (ratio to wild type); higher = more cleavage; in vitro, sequencing. A digest of the protocol:
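Libraries of CPEB3 self-cleaving ribozyme mutants came from rounds of error-prone PCR and carried barcodes, which DNA sequencing matched to variants. In vitro transcription used T7 RNA polymerase at 37°C for 5 hours, with a further 15 min in DNase I before EDTA stopped the reaction; the ribozymes cleaved during both steps. The RNA was reverse transcribed with template switching and sequenced on Illumina. Relative activity is the cleaved/total read fraction of a variant divided by that of the unmutated ribozyme, averaged over three batches with at least 5 reads.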
For the variant AAACAGGGGGCCACAGCAGAAGCGUUCACGUCGCAGCGCCUGUCAGAUUCAGGUGAAUCUGCGAAUUCUGCCGUAUAUCUC, the self-cleavage was found to be 0.08.

As for AAACAGGGGGCCACAGCAGAAGGGCUCACGUCGCAGCCCCUGUCAGAUUCUGGUGAAUCGGCGUAUUCUGCUGUAUAUCUC, the self-cleavage came to 0.06.

Turning to AAACAGGGGGCCACAGCUGAAGCGUUCACGUCGCAGCCCCUGUCAGAUUCUGGUGAAUCUGCGAACUCUGCUGUAUAUCUC, the self-cleavage turned out to be 0.2.

AAACAGGGGGCCACAGCAGAAGCGUUCUCGUCGCAGCCCCUGUCAGAUUCUGGUGAAUCUGCGAAUUCUCCUGUUUAUCUC: the self-cleavage is 0.17.

For the variant AAACAGGGGGCCACUGCAGAAGCGUUCACGUCGCAGCCCCUGUCAGAUUCUGGUGAAUGUGCGAACUCUGCUGUAUAUCUC, the self-cleavage is 0.14.

As for AAACAGGGGGCCACAGAAGAAGCGCUCACGUCGCAGCCCCUGCCAGAUUUUGGUGAAUCUGCGAAUUCUGCUGUAUAUCUC, the self-cleavage stood at 0.07.

In the case of AAACAGGGGGCCACAGCAGAAGCGUUCACGUCGCUGCCCCUGUCAGACUCUGAUGAAUCUGCGAAUUCUGCUGUAUAUCUC, the self-cleavage is 0.21.

Regarding AAACAGGGGGCCACAGCAGAGGCGUUCAGGUCGCAGCACCUGUCUGAUUCGGGUGAAUCUGCGAAUUCUGCCGUAUAUCUC, the self-cleavage worked out at 0.11.

With AAACAGGGGGGCACAGCAGAAGCGUUCGCGUCGCAGCCCCUGUCAGAUUCUGGUGAAUCUGCGAAUUCCGCUGUGUAUCUC, the self-cleavage was 0.07.

With AAACAGGGGGCCACAGCAGAAGUGUUCACGUAGCAGCCCCUGUCAGAUUCUGGUGAAUCUGCGAAUUCAGCUGCAUACCUC, the self-cleavage is 0.12.

For the variant AAACAGGGGGGCACAGCAGAAGCGUACACGUCGCAGCCCCUGUCAGAUUCUGGUGAAUCUGCGAAUUCUGCUGUAUAUCUC, the self-cleavage is 0.49.

As for AAACAGGGGGCCACAGCAGAAGCGUUCACGUCGCGGCCCCUGUCGGAUUCUGGUGAAUCUGUUAAUUCUGCUGUAUAUCUC, the self-cleavage amounted to 0.23.

In the case of AAACAGGGGGCCACAGCAGGAGCGUACACGUCGCAGCCCCUGUCAGAUUCUGGUGAAUCUGCGAAUUCCGCUGUAUAUCUC, the self-cleavage stood at 0.44.

Consider AAACAGGGGGCCACAGCAGGAGCGUUCACGUCGCAGCCCCUGGCAGAUUCUGGUGAAUCUGCGAAUUCUGCUGUAUAUCUC, for which the self-cleavage came to 0.38.

Consider AAACAGGGGGCCACAGCAGGAGCGUUCACGUCGCAGCCCCUGUCAGAUUCUGGUGAAUCUGCGAAUCCUGCUGUAUAACUC, for which the self-cleavage stood at 0.39.

As for AAACAGGGGGCCACAGCAGAGGCGUUCACGUCGCAGCCCCUGUCAGAUUCUGGUGAAUCUGUGAAUUCUGCUGUAUAUCUC, the self-cleavage came out at 0.26.

Take AAACAGGGGGCCACAGCAGAAGCGUUCACGUCGCAGCCCCUGUCUGAUUCUGGUGAAUCUGCGAAUUCUGCUGUAUAUCGC: the self-cleavage was 0.48.

In the case of AAACAGGGGGCCACAGCAGAGGCGUUCACGUCGCAGCCCCUGUCAGGUCCUGGUGAAUCUGCGAGUUCUGCUGUAUAACUC, the self-cleavage stood at 0.2.

On to AAACAGGGGGCCACAGCAGGAGCGUUCACGCCGCAGCCCCUGUCAGAUUCUGGUGGAUCUGCGAAUUCCGCUGUAUAACUC, for which the self-cleavage turned out to be 0.06.

Regarding AAACAGGGGGCCAGAGCAGAAGCGAUCAGGUCGCAGCCCCUGUCAGAUUCUGGUGAAUCUGCGUAUUCUGCUGUAUAUCUC, the self-cleavage turned out to be 0.04.

Consider AAACAGGGGGCCACAGCAGAAGCGUUCUCGUCGCAGCCCCCGUCAGAUUCUGGUGAAUCUGCGAAUUCUGCUGUAUAUCUC, for which the self-cleavage was determined as 0.99.

With AAACAGGGGGCCACAGCAGAUGCGUUCGCGUCGCAGCCCCUGUCAGAUUCUGGUGAAUCUGCGAAUUCUGCUGUAUAUCUC, the self-cleavage was found to be 0.22.

In the case of AAACAGGGGGUCACAGCAGAAGCGUUCACGUCGCAGCCCCUGUCAGAUUCUGGAGAAUCUGCGAAUUCUGCUGUAUAUCUC, the self-cleavage came out at 0.44.

As to AAACAGGGGGCCACAGCUGAAGCGUUCACGUCGCAGCCCCUGUCAGAUCCUGGUGAAUCUGCGAAUUCUGCUGUAUAUCUC, the self-cleavage amounted to 0.09.

Take AAACAGGGGGCCACAGCAGAAGCGUUCACGUCGCAGCCCCUGUCAGGUUCUGGUGAAUCUGCGAAUUCUGCUGUAUAUCCC: the self-cleavage is 1.1.

In the case of AAACAGGGGGCCACAGCAGAAGCGUUCACGUCGCAGCCCCUGUCAGUUUCUGGUGAAUCUGCGAAUUCUGCUGAAUAUCUC, the self-cleavage was 0.34.

Take AAACAGGGGGCCACAGCUGAAGCGCUCACGUCGCAGCCCCUGUCAGAUUCUGGUGAAUCUGCGAGUUCUGCUGUAUAUCUC: the self-cleavage worked out at 0.14.

On to AAACAGGGGGCCACAGCGGAAGCGUUCACAUCGCAGCCCCUGUCAGAUUCUGGUGAGUCUGCGAAUUCUGCUGUAUAUCUC, for which the self-cleavage came out at 0.22.

Regarding AAACAGGGGGCCACAGCAGAGGCGUUCACGUCGCAGCCCCAGUCAGAUUCUGGUGAAUCUGCGAAUUAUGCUGUAUAUCUC, the self-cleavage stood at 0.06.

On to AAACAGGGGGCCACAGCAGAAGCGUUAACGUCGCUGCCCCUGUCAGAUUCUGGUGAAUCCGCGAAUUCUGCUGUAUAUCUC, for which the self-cleavage amounted to 0.07.

AAACAGGGGGCCACAGCAGAAGCGUUCGCGUCGCAGCCCCUGUCGGAUUCUGGUGAAUCUGCGAAUUCUGCUGUAUAUCUC: the self-cleavage was 0.3.

On to AAACAGGGGGCCACAGCAGAGGCGUUCACGUCGCAGCCCCUGUCAGAUUCUGGUGAAUCUGCGAAUUCUGCUGUAUACCUC, for which the self-cleavage was 0.63.

Regarding AAACAGGGGGCCACAGUAGAAGCGUUCACGUCGCAGCUCCUGUCAGAUUCUGGUGAAUCUGCGAAUUCCGCUGUAUAUCUC, the self-cleavage was found to be 0.08.

Take AAACAGGGGGCCACAGCAGAAGCGUUCACGUCGCUGCCCCCGUCAGAUUCUGGUGAAUCUGCGAAUUCUGCUGUAUAUCUC: the self-cleavage was 0.36.
